Experimental data published in PubChem BioAssay AID1347165 (National Center for Advancing Translational Sciences (NCATS), 2019).
Out of some 220,000 compounds screened, about 5,700 (2.6%) were called active. The inconclusive results got no clear call from the source; some entries with a clear call stand among them for comparison. The call rests on the fitted dose curve; in most records, active means well fitted inhibition curve with a large enough effect; inconclusive means small, poorly fitted or top-dose-only effect; inactive means no such curve, though single readings can be large or run the other way. Potencies beside an inconclusive call are fits to weak or partial responses and may not hold up.

These compounds were tested against Lysine-specific demethylase 5B (Homo sapiens) (UniProt Q9UGL1) (assay: Primary screen for KDM5B Histone Demethylases FDH-coupled qHTS). Conditions: FDH-coupled NADH fluorescence (FDH is formaldehyde dehydrogenase); activity change, negative = inhibition: at 57.7 µM (top of the series) unless noted.
Procedure, shortened: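 Measured: NADH fluorescence change, 30 min, RT. System: KDM5BΔAP 200 nM final, H3K4me3 peptide, α-KG, Fe(II), ascorbate, NAD⁺ plus FDH, pH 7.5 HEPES. Compounds: titrated, 10 min pre-incubation with enzyme.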
Further: nearly all actives have a fitted effect of over 70% in size.
Potency means the concentration at half of the fitted maximal effect; tags describe the fitted curve by direction and shape.
Wherever activity change, negative = inhibition is given: 0% is about no effect.

Chain of UniProt Q9UGL1 (Q9UGL1 whole entry, looked up): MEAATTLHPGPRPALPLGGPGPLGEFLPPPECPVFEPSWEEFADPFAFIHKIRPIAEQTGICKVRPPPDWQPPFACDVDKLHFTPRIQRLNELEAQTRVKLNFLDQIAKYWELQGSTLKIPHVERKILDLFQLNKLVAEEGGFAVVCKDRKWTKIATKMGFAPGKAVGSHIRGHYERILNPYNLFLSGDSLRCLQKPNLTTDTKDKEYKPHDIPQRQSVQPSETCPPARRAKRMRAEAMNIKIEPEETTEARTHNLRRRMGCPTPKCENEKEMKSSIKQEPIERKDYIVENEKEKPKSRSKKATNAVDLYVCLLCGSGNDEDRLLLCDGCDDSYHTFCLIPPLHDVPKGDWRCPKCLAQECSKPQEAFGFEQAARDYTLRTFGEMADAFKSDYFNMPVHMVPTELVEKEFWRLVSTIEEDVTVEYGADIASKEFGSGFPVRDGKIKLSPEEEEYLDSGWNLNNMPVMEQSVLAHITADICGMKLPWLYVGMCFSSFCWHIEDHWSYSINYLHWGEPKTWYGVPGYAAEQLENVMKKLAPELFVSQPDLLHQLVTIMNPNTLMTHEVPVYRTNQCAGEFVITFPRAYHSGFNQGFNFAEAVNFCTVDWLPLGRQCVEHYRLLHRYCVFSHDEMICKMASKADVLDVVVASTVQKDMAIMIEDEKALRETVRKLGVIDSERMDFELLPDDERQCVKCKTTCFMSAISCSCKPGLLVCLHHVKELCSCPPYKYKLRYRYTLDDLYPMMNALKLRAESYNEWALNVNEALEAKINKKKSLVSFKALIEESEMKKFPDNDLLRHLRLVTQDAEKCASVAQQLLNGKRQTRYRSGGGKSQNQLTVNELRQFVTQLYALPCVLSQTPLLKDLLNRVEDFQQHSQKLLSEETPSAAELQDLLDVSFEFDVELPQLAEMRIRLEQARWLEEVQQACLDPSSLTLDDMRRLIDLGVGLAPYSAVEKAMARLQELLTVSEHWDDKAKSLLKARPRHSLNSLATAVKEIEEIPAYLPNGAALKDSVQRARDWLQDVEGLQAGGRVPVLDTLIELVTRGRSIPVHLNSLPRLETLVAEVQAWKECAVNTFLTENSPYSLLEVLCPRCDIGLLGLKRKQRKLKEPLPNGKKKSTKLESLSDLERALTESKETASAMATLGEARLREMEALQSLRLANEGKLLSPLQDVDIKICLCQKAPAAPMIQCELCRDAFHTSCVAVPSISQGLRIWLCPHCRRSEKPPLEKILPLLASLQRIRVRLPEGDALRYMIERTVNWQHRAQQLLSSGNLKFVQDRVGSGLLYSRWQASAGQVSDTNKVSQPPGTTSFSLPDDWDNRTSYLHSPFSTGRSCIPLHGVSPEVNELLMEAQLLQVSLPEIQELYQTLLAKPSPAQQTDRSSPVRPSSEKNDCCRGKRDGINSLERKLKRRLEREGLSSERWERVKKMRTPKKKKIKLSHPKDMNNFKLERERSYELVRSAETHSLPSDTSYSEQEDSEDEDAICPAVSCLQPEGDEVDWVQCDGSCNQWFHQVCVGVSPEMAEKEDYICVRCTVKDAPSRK

| SMILES | Potency | activity change, negative = inhibition |
| --- | --- | --- |
| O=C(Cn1ncc2c3ccccc3n(Cc3ccc(F)cc3)c2c1=O)NCc1ccccn1 | inconclusive: 2.51 µM [inhibitor, full curve, poor fit] |  |
| CN(Cc1ccsc1)CC1(O)CCCN(CCCc2ccccc2)C1=O (centres undefined) | inactive |  |
| Cc1ccc(SCC(=O)Nc2ccc3oc(-c4cccc(Cl)c4)nc3c2)cc1 | inconclusive: 12.6 µM [inhibitor, partial curve, poor fit] |  |
| O=C(/C=C/c1ccc(-c2ccccc2Cl)o1)c1ccc2ccccc2c1 | inconclusive: 14.1 µM [inhibitor, partial curve, poor fit] |  |
| O=C(c1ccccn1)N1CCOc2c(O)cc(-c3cccc(Cl)c3)cc2C1 | inconclusive: 35.5 µM [inhibitor, partial curve, poor fit] |  |
| O=C1NCCCCCCN(Cc2ccc(F)c(F)c2)[C@H]2CCC[C@@H]12 | active: 12.6 µM |  |
| Cc1ccc(C(=O)N2CCC3(CC2)Cc2ccccc2NC3=O)cc1 | inactive |  |
| O=C(NCc1ccc2c(c1)OCO2)c1nc(-c2cccc(C(F)(F)F)c2)c2cnccn12 | active: 28.2 µM |  |
| Cc1ccc(Cc2cn3cc(-c4ccccc4)nc3s2)cc1 | inconclusive: 3.55 µM [inhibitor, partial curve, poor fit] |  |
| COC(=O)C1=C(C(=O)OC)SC(=C(Cl)C(=S)Sc2ccccn2)S1 | inconclusive: 35.5 µM [inhibitor, single point] |  |
| CCC1(N2CCN(S(=O)(=O)c3cccs3)CC2)CCN(S(C)(=O)=O)C1 (centres undefined) | inactive |  |
| COc1cccc(C(=O)N2CCC(N3C[C@H](O)C[C@H]3C(=O)NCc3nc4ccccc4n3C)CC2)c1 | inconclusive: 11.2 µM [inhibitor, partial curve] |  |
| O=C(NCCN1CCNC1=O)c1cnc2n1CCN(Cc1nccs1)CC2 | inconclusive: 63.1 µM [inhibitor, partial curve, poor fit] |  |
| CC(C)c1ccc(S(=O)(=O)N(Cc2ccc(C(=O)NC3CC3)cc2)C2CC2)cc1 | inactive |  |
| Cn1ccnc1CNC(=O)C[C@@H]1C[C@H]2O[C@H](CNC3CCC3)[C@@H](O)[C@H]2O1 | inactive |  |
| O=[S+]([O-])(c1cccs1)N1CCn2c(nnc2-c2ccc(Cl)cc2)C1 | inactive |  |
| CCOc1ccc(OCC)c(NC(=O)c2cnc(SC)nc2-c2ccccc2)c1 | inconclusive: 17.8 µM [inhibitor, partial curve, poor fit] |  |
| O=C(c1cccnc1-c1nc2ccccc2s1)N1CCOCC1 | inactive |  |
| CN(C)C[C@@H]1CN(c2ncccn2)C[C@H]1NC(=O)c1cccc(Cl)c1 | active: 28.2 µM |  |
| Cc1ccccc1C(=O)NC(Nc1ccccc1)C(Cl)(Cl)Cl (centres undefined) | inactive |  |
| Cc1ccc(CN2CCSc3ccc(C(=O)Nc4ccc(C)cc4)cc32)cc1 | inconclusive: 15.8 µM [inhibitor, partial curve, poor fit] |  |
| Cc1nn(-c2ccccc2)c(Oc2ccc(F)cc2F)c1CCC(=O)N(C)C(C)C | inactive |  |

| SMILES | Potency | activity change, negative = inhibition |
| --- | --- | --- |
| NC(=O)C1CCN(c2cc(-c3noc([C@@H]4CCCN4Cc4ccc(Cl)cc4)n3)ccn2)CC1 | active: 31.6 µM |  |
| Cc1ccc(Cl)cc1N1CCN(C(=O)c2cc(S(=O)(=O)N3CCCC3)c[nH]2)CC1 |  | inconclusive: -44.7% [inhibitor] |
| CCOC(=O)CNC(c1ccccc1)c1cc(Br)ccc1NC(=O)c1cccc(Cl)c1 (centres undefined) | inconclusive: 39.8 µM [inhibitor, single point] |  |
| CC(=O)c1c(C)[nH]c(C(=O)C(C)Sc2ccc3c(c2)OCCCO3)c1C (centres undefined) | inactive |  |
| Cc1ccc(CN2C(=O)NC3(CCCN(C(=O)c4cc(Cl)ccc4F)C3)C2=O)cc1 (centres undefined) | inactive |  |
| CC(C)CC(NC(=O)CC(C)(C)CC(=O)O)c1ccccc1 (centres undefined) | inactive |  |
| O=C(NNC(=S)NC(=O)c1cccs1)c1ccc(O)cc1 | inconclusive: 25.1 µM [inhibitor, single point] |  |
| O=C(CSc1nc(=O)n(Cc2ccco2)c2c1CCC2)Nc1ccccc1C(F)(F)F | inconclusive: 17.8 µM [inhibitor, partial curve, poor fit] |  |
| COc1ccc(OC)c(CN2CCN(Cc3ccc(C(F)(F)F)cc3)CC2)c1 | inactive |  |
| COc1ccc(C(=O)Nc2ccc(-c3noc([C@@H]4CCCN4Cc4ccncc4)n3)cn2)cc1 | inconclusive: 17.8 µM [inhibitor, partial curve] |  |
| O=C(COc1ccccc1)Nc1ccc(S(=O)(=O)Nc2ccccn2)cc1 | inconclusive: 39.8 µM [inhibitor, partial curve, poor fit] |  |
| O=C1COc2ccc(-c3csc(Nc4ccc(F)cc4)n3)cc2N1 | inactive |  |
| CC(NC(=O)c1cc2n(n1)CC(c1ccc3c(c1)OCO3)OC2)c1ccccc1 (centres undefined) | inconclusive: 15.8 µM [inhibitor, partial curve, poor fit] |  |
| O=C(O)CCn1ncc2cc(OCC3CCN(C(=O)Cc4ccccc4)CC3)ccc21 | inactive |  |
| CCOC(=O)c1ccccc1NC(=O)CSc1ncnc2c(-c3ccccc3)c[nH]c12 | inconclusive: 35.5 µM [inhibitor, single point] |  |
| O=C(NCc1nnc2ccc(-c3ccccc3)nn12)c1ccccn1 | active: 28.2 µM |  |
| O=S(=O)(Nc1nc2ccccc2nc1NCC1CCCO1)c1ccccc1 (centres undefined) | inconclusive: 39.8 µM [inhibitor, partial curve, poor fit] |  |
| O=C(Nc1ccccc1C(F)(F)F)N1CCC(N2CCN(Cc3ccccn3)C(=O)C2=O)CC1 | inactive |  |
| O=C(c1cnn(Cc2ccccc2)c1)N1CCN(S(=O)(=O)c2cccc(Br)c2)CC1 | inactive |  |
| Nc1c(N(Cc2ccco2)C(=O)COc2ccccc2Cl)c(=O)[nH]c(=O)n1Cc1ccccc1 | inconclusive: 39.8 µM [inhibitor, partial curve, poor fit] |  |
| CCN(CC)CCNC(=O)c1nc2c3c4c(sc3nc(C)n2n1)CCC4 | inconclusive: 20 µM [inhibitor, partial curve, poor fit] |  |
| O=C(c1cccn1C1CC1)N1C[C@H](CO)C[C@H](CN2CCCC2)C1 | inconclusive: 11.2 µM [inhibitor, partial curve] |  |
